Laboratory results from the supplement of paper PMC10126150.
Sequences with one replicate were seen in a single cluster, so their values are uncertain.

Tested on: ATP
Experiment: switch fluorescence ratio, 500 uM ATP over buffer (Cy3 cluster intensity, sum of 5 cycles each) (fold (ratio)); higher = stronger signal-on switching upon ATP binding; sequences stand for … in TCGTCGGCAGCGTCAGATGTGTATAAGAGACAGTTTTTTTTTTTTTTTTTTTTTTTTT…TC
Conditions: aptamer strand: ATP DNA aptamer (quencher-CACCTGGGGGAGTATTGCGGAGGAAGG + anchor), 100 nM annealed; ATP concentration: 500 uM; one replicate
How it was run: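 Five buffer/ATP imaging cycles were run on Cy3-labelled switching-strand clusters on a modified Illumina MiSeq flow-cell, with NaOH stripping and re-annealing between cycles. In each cycle, clusters annealed to 100 nM quencher-labelled ATP aptamer were imaged in selection buffer, then after 15 min with 500 uM ATP at 22 °C. Per cluster, the fluorescence ratio is summed target-cycle over summed buffer-cycle Cy3 intensity, averaged per switch-domain sequence. Only clusters within 100-1000 RFU were kept.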
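Also: ATP exposure 15 min at 22 °C before imaging.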

| Sequence | switch fluorescence ratio |
| --- | --- |
| AAGTGGTACT | 1.05 |
| GGGGCCTGAC | 1.22 |
| CTGTGCGGGC | 1.04 |
| TTGGGGCGGC | 1 |
| CGGGATCAAG | 0.944 |
| TATCCCTATA | 1.96 |
| TTCTGATCTT | 1.02 |
| CCGTTCGTAT | 1.2 |
| TGGATTGGT | 0.989 |
| GTGGTTGTA | 0.972 |
| TCCAGCAGAT | 1.23 |
| GTGTTTTTG | 1.01 |
| TCGTAGGAAG | 0.992 |
| AACAAATTTG | 0.991 |
| TTTAATCCTT | 1.03 |
| CGTCAAGTTG | 0.987 |
| CTTAGCGCTT | 0.961 |
| GGGGGTCCGG | 0.957 |
| TTGAGAGACT | 0.984 |
| CTTACCAGAA | 1.02 |
| GCGACTGCTG | 0.961 |
| GTCGGGAGCA | 1.03 |
| GATGTCACAT | 0.962 |

| Sequence | switch fluorescence ratio |
| --- | --- |
| GTCCCAATGG | 1.56 |
| TCCAAGTCCG | 1.21 |
| ACGCGTTCGT | 0.985 |
| GGTATTCTTG | 1 |
| TCGGGCATGG | 1.03 |
| CAAGTCTTTA | 0.944 |
| AGAGCGGAGT | 0.988 |
| AATGTTGGCC | 1.04 |
| GGCCTCCTT | 1.03 |
| ATTATACA | 1.03 |
| TCAAGAATTA | 0.986 |
| TACTTCTGGA | 0.986 |
| CATGTGGG | 0.992 |
| GGAGGTGGGA | 0.994 |
| GCTAACAAAG | 0.972 |
| GATCCGGGCT | 1.06 |
| GTATTCAGCT | 0.985 |
| AGTGATGCAT | 0.99 |
| CACGGCGGTA | 1 |
| TCTAGGCAAC | 1.25 |
| ACTTCCGGGT | 1.11 |
| CACGCCCACA | 1.46 |
| AGGATTGGGC | 0.973 |

| Sequence | switch fluorescence ratio |
| --- | --- |
| CGTAGCTTGT | 1.13 |
| GCGGGAACCT | 1.5 |
| TAAATCCCAG | 0.987 |
| ACTATTCGGA | 0.963 |
| ACAAAGAGAT | 1.04 |
| GTTGAAACCG | 1.16 |
| TACGCTACCT | 1.56 |
| GTGCAACGGA | 0.99 |
| GATAGCTATA | 1.02 |
| GACTACCAGG | 1.84 |
| TCGTGCGATG | 1.02 |
| TCCGTAGGT | 1.22 |
| AGTCTGCTAT | 1.06 |
| ATTCCGGCTT | 0.989 |
| ACACCAATGG | 1.02 |
| GAGGTGCGAG | 1 |
| CAAAAAATAG | 1.11 |
| GCCCTATTCG | 0.955 |
| GGCTTGACTT | 1.01 |
| ACAGAGTGTG | 0.99 |
| AGGCGGCGCG | 0.996 |
| CTGAGTGGCT | 1 |
| TTGTGCATAG | 1.08 |

| Sequence | switch fluorescence ratio |
| --- | --- |
| GTTATCTTAA | 0.992 |
| GCCGGCCAAA | 0.961 |
| TATAATATCC | 1.02 |
| GTCCTCCTTT | 1.03 |
| GGTCAGAAAG | 1.02 |
| GCCGTTGAGA | 1.03 |
| GTGTGTTGGT | 0.939 |
| GAACTTGTCG | 0.972 |
| TACATTAGCG | 1.03 |
| ACGGAGTACT | 1.08 |
| CAATGCGCTT | 1 |
| TCCACTACAC | 1.43 |
| ACTTCTGGGG | 1.04 |
| GCATCTCGTT | 0.99 |
| TGGTGTGCGA | 0.982 |
| ATTTCCACCT | 1.1 |
| GGAGCTTTTT | 1.01 |
| ATTTAAAGGA | 1 |
| AGACTGCAGC | 1.02 |
| GCAGTTTATC | 1.02 |
| TGCCGCGGAG | 1.02 |
| CTGGACTGTT | 0.965 |
| CTTTGATTTG | 1 |

| Sequence | switch fluorescence ratio |
| --- | --- |
| TCGATTAGGT | 0.996 |
| TAAATAGATG | 0.981 |
| GATCTGAAAA | 0.986 |
| TTGGTGTCAC | 0.961 |
| GACATTGTAC | 1.18 |
| GCCAGTTCCT | 1.04 |
| ACATCATGTA | 0.957 |
| ATCCCTTAAC | 1.05 |
| GTTTTTGGGA | 0.961 |
| ACTTGCGGGG | 1.01 |
| CGATAAAT | 1.02 |
| AACGGAAATT | 0.981 |
| GCCGGGTCA | 0.961 |
| AGACCTCTTA | 0.986 |
| GCTACATTC | 1.04 |
| CTTCTACTAC | 1.21 |
| TTTAGGCGTA | 1.03 |
| GAAAACAAAG | 0.978 |
| TTTGATCG | 0.996 |
| GCGAGCGAT | 1.07 |
| GGGACACCTT | 1.07 |
| CTCACGGCAA | 6.08 |
| AGAGAAGTGG | 0.958 |

| Sequence | switch fluorescence ratio |
| --- | --- |
| TATATTCTCT | 0.997 |
| CCCCGTGTTT | 1.37 |
| GTTTTGTGCG | 1 |
| TCAGACGGAT | 1.02 |
| CACACAGTTA | 1.02 |
| CATAATAGTG | 1.01 |
| ATGCGAGACG | 1.09 |
| CCGTAGAGAT | 3.24 |
| AAGTGGTAGG | 0.959 |
| ATCAGCCAAG | 1.03 |
| TCTGTAATTG | 1.01 |
| GGGCGTCAA | 1.03 |
| TAGACGTC | 0.985 |
| CAGGTATATC | 0.996 |
| GCTATACCCA | 1.24 |
| CACCGGTGGT | 1.05 |
| CTTTAAACGA | 1.02 |
| CGGTGGTACG | 0.952 |
| ACTATTGGCC | 1 |
| GCGACCAAAT | 1.05 |
| GGACTGCCTT | 1.07 |
| CGGGCATAAC | 2.87 |
| GAGCACCCGG | 1.04 |

| Sequence | switch fluorescence ratio |
| --- | --- |
| CTAATGATC | 1.01 |
| CAGGCGGTCG | 0.981 |
| TCTTAGTTGA | 1.02 |
| TCGATTGGAT | 1.01 |
| GTTGAGTGTT | 1.01 |
| GATTGAATCA | 0.998 |
| AATGTTCTCG | 0.982 |
| TAGAAGAATG | 0.992 |
| AGTACATCGC | 1.02 |
| CTTCGGGT | 1.02 |
| GGGGGATCTG | 1.02 |
| GAACAAGAAG | 0.961 |
| GCCGAATCAC | 1.01 |
| CGGCTTAGTG | 1.03 |
| TCGTCGCGAT | 1.77 |
| TAATCGGTGC | 0.988 |
| CGTAAATCAA | 0.987 |
| TGTCTTTAGA | 1.02 |
| GTAAAATATT | 0.994 |
| CTCCACGGCC | 1.73 |
